Reference: PubChem BioAssay AID1159580 (chemical genetic matrix, 2015)
Hit rate of the full screen: of about 5,500 compounds, about 2,000 (36%) were called active. Rule as the data show it: active = normalized growth mostly below about 0.91 (no sharp cut-off); inconclusive = no clear call, values can overlap the other calls; inactive = mostly above about 0.92. Inconclusive results, whose numbers are uncertain, are shown. Some structures have more than one record in an assay (separate samples or runs), and their calls can disagree.

Assay: chemical genetic growth profiling, strain panel (AID 1159580);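 also: tested at 20 µM; growth read once vehicle control cultures reached saturation at 30 °C; 1 = growth at the plate median or of vehicle wells; lower values mean less growth of the strain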
Conditions: S. cerevisiae deletion strains, growth OD
[1] = locus YMR277W, strain FCP1, stronger effect = lower value
[2] = locus YNL197C, strain WHI3, stronger effect = lower value
[3] = locus YMR263W, strain SAP30, stronger effect = lower value
[4] = locus YER002W, strain NOP16, stronger effect = lower value
[5] = locus YIL125W, strain kgd1, stronger effect = lower value
[6] = locus YDL101C, strain DUN1, stronger effect = lower value
[7] = locus YKL009W, strain mrt4, stronger effect = lower value

## CSC(SC)=C(C#N)C(=O)c1ccccc1Cl
Locus YBR136W, strain MEC1, stronger effect = lower value
  normalized growth: inconclusive: 0.806 [sensitive]
Locus YFR028C, strain CDC14, stronger effect = lower value
  normalized growth: inconclusive: 0.889 [sensitive]
Locus YJL128C, strain PBS2, stronger effect = lower value
  normalized growth: inconclusive: 0.635 [sensitive]
Locus YKL193C, strain SDS22, stronger effect = lower value
  normalized growth: inconclusive: 0.753 [sensitive]
[1]
  normalized growth: inconclusive: 0.56 [sensitive]
Locus YNL222W, strain SSU72, stronger effect = lower value
  normalized growth: inconclusive: 0.58 [sensitive]
Locus YOR329C, strain SCD5, stronger effect = lower value
  normalized growth: inconclusive: 0.65 [sensitive]

## CCn1cnc2c(Nc3cccc(Cl)c3)nc(N[C@@H]3CCCC[C@@H]3N)nc21
[2]
  normalized growth: inconclusive: 1.12 [resistant]

## NCCOB(c1ccccc1)c1ccccc1
Locus YLR357W, strain rsc2, stronger effect = lower value
  normalized growth: inconclusive: 0.767 [sensitive]

## COC1C=CC23c4cc5c(cc4CN(CC2O)[C@@H]3C1)OCO5 (stereo partly drawn)
Locus YOR083W, strain WHI5, stronger effect = lower value
  normalized growth: inconclusive: 1.12 [resistant]

## O=[N+]([O-])c1ccc(N2CCCN(C(=S)Nc3ccc(Cl)cc3Cl)CC2)nc1
[3]
  normalized growth: inconclusive: 0.889 [sensitive]

## O=S1(=O)N(CCN2CC=C(c3c[nH]c4cc(F)ccc34)CC2)c2cccc3c2N1CCC3
[4]
  normalized growth: inconclusive: 1.11 [resistant]

## COc1cccc(OC)c1C(=O)N[C@@H]1C(=O)N2[C@@H]1SC(C)(C)[C@@H]2C(=O)O
Locus YOL147C, strain pex11, stronger effect = lower value
  normalized growth: inconclusive: 0.934 [sensitive]
Locus YPR119W, strain clb2, stronger effect = lower value
  normalized growth: inconclusive: 0.908 [sensitive]

## CCOC(=O)c1ccc(N)cc1
Locus YKR026C, strain gcn3, stronger effect = lower value
  normalized growth: inconclusive: 1.09 [resistant]

## O=c1c(O)cc([C@H]2Oc3cc(O)cc(O)c3C[C@H]2O)cc2c([C@H]3Oc4cc(O)cc(O)c4C[C@H]3O)cc(O)c(O)c12
Locus YKL085W, strain MDH1 (second series), stronger effect = lower value
  normalized growth: inconclusive: 1.09 [resistant]
Locus YKL085W, strain MDH1, stronger effect = lower value
  normalized growth: inconclusive: 1.09 [resistant]

## O=c1c2ccccc2[nH]c(=S)n1-c1cccc(C(F)(F)F)c1
Locus YDL028C, strain MPS1, stronger effect = lower value
  normalized growth: inconclusive: 0.695 [sensitive]
Locus YDR054C, strain cdc34, stronger effect = lower value
  normalized growth: inconclusive: 0.685 [sensitive]
Locus YIL147C, strain SLN1, stronger effect = lower value
  normalized growth: inconclusive: 0.705 [sensitive]
Locus YMR001C, strain CDC5, stronger effect = lower value
  normalized growth: inconclusive: 0.817 [sensitive]
[1]
  normalized growth: inconclusive: 0.867 [sensitive]
Locus YOL078W, strain AVO1, stronger effect = lower value
  normalized growth: inconclusive: 0.839 [sensitive]

## COC(=O)[C@@H]1OC(=O)[C@H]2O[C@@]23[C@@]1(C)CCC1[C@@]2(C)CCC(=O)C(C)(C)C2C[C@@H](OC(C)=O)[C@]13C (stereo partly drawn)
Locus YDR335W, strain msn5, stronger effect = lower value
  normalized growth: inconclusive: 0.91 [sensitive]

## CC(C)c1ccc2c(c1O)CC[C@H]1C3=C(CC[C@]21C)C(=O)OC3
Locus YLR371W, strain rom2, stronger effect = lower value
  normalized growth: inconclusive: 0.903 [sensitive]

## CCCCC/C=C\C/C=C\C/C=C\C/C=C\CCCC(=O)O
[5]
  normalized growth: inconclusive: 0.87 [sensitive]

## CCOC(=O)c1cc(CC)sc1NC(=O)c1ccc([N+](=O)[O-])o1
Locus YAR019C, strain CDC15, stronger effect = lower value
  normalized growth: inconclusive: 0.842 [sensitive]
[6]
  normalized growth: inconclusive: 0.719 [sensitive]
Locus YKL048C, strain ELM1, stronger effect = lower value
  normalized growth: inconclusive: 0.781 [sensitive]
Locus YKL203C, strain TOR2, stronger effect = lower value
  normalized growth: inconclusive: 0.595 [sensitive]
[1]
  normalized growth: inconclusive: 0.825 [sensitive]
Locus YOR119C, strain RIO1, stronger effect = lower value
  normalized growth: inconclusive: 0.608 [sensitive]
Locus YPR025C, strain CCL1, stronger effect = lower value
  normalized growth: inconclusive: 0.865 [sensitive]
Locus YPR106W, strain ISR1, stronger effect = lower value
  normalized growth: inconclusive: 0.704 [sensitive]

## Cn1c(=O)[nH]c2nc[nH]c2c1=O
[7]
  normalized growth: inconclusive: 1.18 [resistant]

## Cc1cc2c(C(C)C)c(O)c(O)c(C=O)c2c(O)c1-c1c(C)cc2c(C(C)C)c(O)c(O)c(C=O)c2c1O
Locus YGL086W, strain mad1, stronger effect = lower value
  normalized growth: inconclusive: 1.12 [resistant]
[7]
  normalized growth: inconclusive: 1.2 [resistant]

## CC(=O)[O][Hg][c]1ccccc1
Locus YOL012C, strain htz1
  normalized growth: inconclusive: 0.206 [sensitive]

## O=c1[nH]c2ccccc2n1C1CCN(CCCC(c2ccc(F)cc2)c2ccc(F)cc2)CC1
[4]
  normalized growth: inconclusive: 1.14 [resistant]
Locus YNL175C, strain NOP13, stronger effect = lower value
  normalized growth: inconclusive: 1.09 [resistant]

## OC[C@@H](O)C(O[C@@H]1O[C@H](CO)[C@H](O)[C@H](O)[C@H]1O)[C@H](O)[C@@H](O)CO (stereo partly drawn)
Locus YBR231C, strain swc5, stronger effect = lower value
  normalized growth: inconclusive: 0.633 [sensitive]

## CC(=O)c1ccc(O)c(CC=C(C)C)c1
[5]
  normalized growth: inconclusive: 0.904 [sensitive]

## CCCN(CCc1ccccc1)C1CCc2c(O)cccc2C1 (stereo not drawn)
[2]
  normalized growth: inconclusive: 0.739 [sensitive]

## N.N.N.N.N.N.N.N.N.N.N.N.N.N.O.O.[Ru+4].[Ru+5].[Ru+5]
Locus YCL061C, strain MRC1 (second series), stronger effect = lower value
  normalized growth: inconclusive: 0.71 [sensitive]

## O=C(NCc1nc(-c2ccc(C(F)(F)F)cc2)no1)Nc1ccc(F)cc1F
[3]
  normalized growth: inconclusive: 0.833 [sensitive]

## CC1(C)C(=O)C=C[C@@]2(C)C1CC(=O)[C@]1(C)C2CC[C@@]2(C)[C@H](c3ccoc3)OC(=O)[C@H]3O[C@]321 (stereo partly drawn)
Locus YCL011C, strain gbp2, stronger effect = lower value
  normalized growth: inconclusive: 0.854 [sensitive]

## CC1(C)C/C(=N/Nc2ccc(C(F)(F)F)cc2)c2cc(C(C)(C)C)c(O)c(O)c2O1
[6]
  normalized growth: inconclusive: 0.86 [sensitive]

## Cc1cc(N)c2ccccc2[n+]1CCCCCCCCCC[n+]1c(C)cc(N)c2ccccc21
Locus YOL012C, strain htz1
  normalized growth: inconclusive: 0.197 [sensitive]
